# Results as given in the supplement of paper PMC8728848.
# The other results are listed elsewhere or left out.
# B1: MGL (Homo sapiens), Q8IUN9 (protein)
# chain: MTRTYENFQYLENKVKVQGFKNGPLPLQSLLQRLCSGPCHLLLSLGLGLLLLVIICVVGFQNSKFQRDLVTLRTDFSNFTSNTVAEIQALTSQGSSLEETIASLKAEVEGFKQERQAGVSELQEHTTQKAHLGHCPHCPSVCVPVHSEMLLRVQQLVQDLKKLTCQVATLNNNASTEGTCCPVNWVEHQDSCYWFSHSGMSWAEAEKYCQLKNAHLVVINSREEQNFVQKYLGSAYTWMGLSDPEGAWKWVDGTDYATGFQNWKPGQPDDWQGHGLGGGEDCAHFHPDGRWNDDVCQRPYHWVCEAGLGQTSQESH
# Experiments:
# Assay in all cases: glycan array binding signal (z-score within array); higher = stronger binding
# Conditions in all cases: glycan notation: IUPAC condensed, linker removed
# [1] = target: GalNAc(a1-3)GalNAc(b1-3)Gal(a1-4)Gal(b1-4)GlcNAc
# Outline: (§1)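 Glycan array data were curated from 3228 arrays in the Consortium for Functional Glycomics database and kept only where the protein sequence was available. Glycan names were converted to IUPAC-condensed notation, and columns mapping to the same glycan were averaged. The binding signal is a within-array Z-score, averaged across arrays of the same protein sequence at different concentrations or buffers and across linkers. Negative Z-scores can be read as non-binding.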
# [2] = target: GalNAc(b1-3)Gal
# Outline: as §1
# [3] = target: GalNAc(b1-3)Gal(a1-4)Gal(b1-4)GlcNAc
# Outline: as §1
# [4] = target: GalNAc(b1-3)Gal(a1-4)Gal(b1-4)GlcNAc(b1-3)Gal(b1-4)Glc
# Outline: as §1
# [5] = target: GalNAc(b1-3)Gal(a1-6)Gal(b1-4)Glc
# Outline: as §1
# [6] = target: GalNAc(b1-3)GalNAc
# Outline: as §1
# [7] = target: GalNAc(b1-3)GlcNAc
# Outline: as §1
# [8] = target: GalNAc(b1-4)Gal(b1-4)Glc
# Outline: as §1
# [9] = target: GalNAc(b1-4)GlcNAc
# Outline: as §1
# [10] = target: GalNAc(b1-4)GlcNAc(b1-2)Man
# Outline: as §1
# [11] = target: GalNAc(b1-4)GlcNAc(b1-2)Man(a1-3)[GalNAc(b1-4)GlcNAc(b1-2)Man(a1-6)]Man(b1-4)GlcNAc(b1-4)GlcNAc
# Outline: as §1
# [12] = target: GalNAc(b1-4)GlcNAc(b1-3)GalNAc(b1-4)GlcNAc
# Outline: as §1
# [13] = target: GalNAc(b1-4)GlcNAc6S
# Outline: as §1
# [14] = target: GalNAc(b1-6)GalNAc
# Outline: as §1
# [15] = target: GalNAc3S(b1-4)GlcNAc
# Outline: as §1
# [16] = target: GalNAc3S(b1-4)GlcNAc3S
# Outline: as §1
# [17] = target: GalNAc3S(b1-4)[Fuc(a1-3)]GlcNAc
# Outline: as §1
# [18] = target: GalNAc4S6S(b1-4)GlcNAc
# Outline: as §1
# [19] = target: GalNAc6S(b1-4)GlcNAc
# Outline: as §1
# [20] = target: Glc(a1-4)Glc
# Outline: as §1
# [21] = target: Glc(a1-4)Glc(a1-4)Glc(a1-4)Glc
# Outline: as §1
# [22] = target: Glc(a1-6)Glc(a1-6)Glc
# Outline: as §1
# [23] = target: Glc(a1-6)Glc(a1-6)Glc(a1-6)Glc
# Outline: as §1
# [24] = target: Glc(b1-4)Glc
# Outline: as §1
# [25] = target: Glc(b1-6)Glc
# Outline: as §1
# [26] = target: GlcA(b1-3)Gal
# Outline: as §1
# [27] = target: GlcA(b1-3)GlcNAc
# Outline: as §1
# [28] = target: GlcA(b1-6)Gal
# Outline: as §1
# [29] = target: GlcA3S(b1-3)Gal(b1-4)GlcNAc(b1-2)Man
# Outline: as §1
# [30] = target: GlcA3S(b1-3)Gal(b1-4)GlcNAc(b1-3)Gal(b1-4)Glc
# Outline: as §1
# [31] = target: GlcNAc(a1-3)Gal(b1-4)GlcNAc
# Outline: as §1
# [32] = target: GlcNAc(a1-4)Gal(b1-3)GlcNAc
# Outline: as §1
# [33] = target: GlcNAc(a1-4)Gal(b1-4)GalNAc
# Outline: as §1
# [34] = target: GlcNAc(a1-4)Gal(b1-4)GlcNAc
# Outline: as §1
# [35] = target: GlcNAc(a1-4)Gal(b1-4)GlcNAc(b1-3)Gal(b1-4)Glc
# Outline: as §1
# [36] = target: GlcNAc(a1-4)Gal(b1-4)GlcNAc(b1-3)Gal(b1-4)GlcNAc
# Outline: as §1
# [37] = target: GlcNAc(a1-4)Gal(b1-4)GlcNAc(b1-3)Gal(b1-4)GlcNAc(b1-3)Gal(b1-4)GlcNAc
# Outline: as §1
# [38] = target: GlcNAc(a1-4)Gal(b1-4)GlcNAc(b1-3)Gal(b1-4)[Fuc(a1-3)]GlcNAc(b1-3)Gal(b1-4)[Fuc(a1-3)]GlcNAc
# Outline: as §1
binder,measurement,setting,value
B1,glycan array binding signal (z-score),[1],0.634
same,glycan array binding signal (z-score),[2],3.3
same,glycan array binding signal (z-score),[3],0.936
same,glycan array binding signal (z-score),[4],1.95
same,glycan array binding signal (z-score),[5],3.77
same,glycan array binding signal (z-score),[6],1.38
same,glycan array binding signal (z-score),[7],3.28
same,glycan array binding signal (z-score),[8],-0.229
same,glycan array binding signal (z-score),[9],1.7
same,glycan array binding signal (z-score),[10],3.9
same,glycan array binding signal (z-score),[11],2.3
same,glycan array binding signal (z-score),[12],3.14
same,glycan array binding signal (z-score),[13],4.05
same,glycan array binding signal (z-score),[14],-0.251
same,glycan array binding signal (z-score),[15],-0.238
same,glycan array binding signal (z-score),[16],-0.243
same,glycan array binding signal (z-score),[17],-0.24
same,glycan array binding signal (z-score),[18],-0.236
same,glycan array binding signal (z-score),[19],2.56
same,glycan array binding signal (z-score),[20],-0.247
same,glycan array binding signal (z-score),[21],-0.242
same,glycan array binding signal (z-score),[22],-0.251
same,glycan array binding signal (z-score),[23],-0.246
same,glycan array binding signal (z-score),[24],-0.259
same,glycan array binding signal (z-score),[25],-0.245
same,glycan array binding signal (z-score),[26],-0.247
same,glycan array binding signal (z-score),[27],-0.248
same,glycan array binding signal (z-score),[28],-0.257
same,glycan array binding signal (z-score),[29],-0.245
same,glycan array binding signal (z-score),[30],-0.247
same,glycan array binding signal (z-score),[31],-0.228
same,glycan array binding signal (z-score),[32],-0.252
same,glycan array binding signal (z-score),[33],-0.244
same,glycan array binding signal (z-score),[34],-0.248
same,glycan array binding signal (z-score),[35],-0.247
same,glycan array binding signal (z-score),[36],-0.237
same,glycan array binding signal (z-score),[37],-0.242
same,glycan array binding signal (z-score),[38],-0.23
